# Some of the results follow.
# B1: AT1G15820(2) (Arabidopsis thaliana), Q9LMQ2 (protein)
# chain: MAMAVSGAVLSGLGSSFLTGGKRGATALASGVGTGAQRVGRKTLIVAAAAAQPKKSWIPAVKGGGNFLDPEWLDGSLPGDFGFDPLGLGKDPAFLKWYREAELIHGRWAMAAVLGIFVGQAWSGVAWFEAGAQPDAIAPFSFGSLLGTQLLLMGWVESKRWVDFFNPDSQSVEWATPWSKTAENFANYTGDQGYPGGRFFDPLGLAGKNRDGVYEPDFEKLERLKLAEIKHSRLAMVAMLIFYFEAGQGKTPLGALGL
# Key:
# Test in all cases: glycan array binding signal (z-score within array); higher = stronger binding
# Settings in all cases: glycan notation: IUPAC condensed, linker removed
# [1] = biological target: GlcNAc(b1-2)[GlcNAc(b1-4)]Man(a1-3)[GlcNAc(b1-4)][GlcNAc(b1-2)Man(a1-6)]Man(b1-4)GlcNAc(b1-4)GlcNAc
# Method in brief: (§1)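 Glycan array data were curated from 3228 arrays in the Consortium for Functional Glycomics database and kept only where the protein sequence was available. Glycan names were converted to IUPAC-condensed notation, and columns mapping to the same glycan were averaged. The binding signal is a within-array Z-score, averaged across arrays of the same protein sequence at different concentrations or buffers and across linkers. Negative Z-scores can be read as non-binding.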
# [2] = biological target: GlcNAc(b1-2)[GlcNAc(b1-4)]Man(a1-3)[GlcNAc(b1-4)][GlcNAc(b1-2)[GlcNAc(b1-6)]Man(a1-6)]Man(b1-4)GlcNAc(b1-4)GlcNAc
# Method in brief: as §1
# [3] = biological target: GlcNAc(b1-2)[GlcNAc(b1-4)]Man(a1-3)[GlcNAc(b1-4)][GlcNAc(b1-2)[GlcNAc(b1-6)]Man(a1-6)]Man(b1-4)GlcNAc(b1-4)[Fuc(a1-6)]GlcNAc
# Method in brief: as §1
# [4] = biological target: GlcNAc(b1-2)[GlcNAc(b1-6)]Man(a1-6)[GlcNAc(b1-2)Man(a1-3)]Man(b1-4)GlcNAc(b1-4)GlcNAc
# Method in brief: as §1
# [5] = biological target: GlcNAc(b1-2)[GlcNAc(b1-6)]Man(a1-6)[GlcNAc(b1-2)Man(a1-3)]Man(b1-4)GlcNAc(b1-4)[Fuc(a1-6)]GlcNAc
# Method in brief: as §1
# [6] = biological target: GlcNAc(b1-2)[GlcNAc(b1-6)]Man(a1-6)[GlcNAc(b1-4)][GlcNAc(b1-2)Man(a1-3)]Man(b1-4)GlcNAc(b1-4)GlcNAc
# Method in brief: as §1
# GlcNAc(b1-3)Fuc = biological target: GlcNAc(b1-3)Fuc
# Method in brief: as §1
# GlcNAc(b1-3)Gal = biological target: GlcNAc(b1-3)Gal
# Method in brief: as §1
# [7] = biological target: GlcNAc(b1-3)Gal(b1-3)GalNAc
# Method in brief: as §1
# GlcNAc(b1-3)Gal(b1-4)Glc = biological target: GlcNAc(b1-3)Gal(b1-4)Glc
# Method in brief: as §1
# [8] = biological target: GlcNAc(b1-3)Gal(b1-4)GlcNAc
# Method in brief: as §1
# [9] = biological target: GlcNAc(b1-3)Gal(b1-4)GlcNAc(b1-2)Man(a1-3)[GlcNAc(b1-3)Gal(b1-4)GlcNAc(b1-2)Man(a1-6)]Man(b1-4)GlcNAc(b1-4)GlcNAc
# Method in brief: as §1
# [10] = biological target: GlcNAc(b1-3)Gal(b1-4)GlcNAc(b1-2)Man(a1-3)[GlcNAc(b1-3)Gal(b1-4)GlcNAc(b1-2)Man(a1-6)]Man(b1-4)GlcNAc(b1-4)[Fuc(a1-6)]GlcNAc
# Method in brief: as §1
# [11] = biological target: GlcNAc(b1-3)Gal(b1-4)GlcNAc(b1-2)[GlcNAc(b1-3)Gal(b1-4)GlcNAc(b1-6)]Man(a1-6)[GlcNAc(b1-3)Gal(b1-4)GlcNAc(b1-2)Man(a1-3)]Man(b1-4)GlcNAc(b1-4)GlcNAc
# Method in brief: as §1
# [12] = biological target: GlcNAc(b1-3)Gal(b1-4)GlcNAc(b1-3)Gal(b1-4)GlcNAc
# Method in brief: as §1
# [13] = biological target: GlcNAc(b1-3)Gal(b1-4)GlcNAc(b1-3)Gal(b1-4)GlcNAc(b1-2)Man(a1-3)[GlcNAc(b1-3)Gal(b1-4)GlcNAc(b1-3)Gal(b1-4)GlcNAc(b1-2)Man(a1-6)]Man(b1-4)GlcNAc(b1-4)GlcNAc
# Method in brief: as §1
# [14] = biological target: GlcNAc(b1-3)Gal(b1-4)GlcNAc(b1-3)Gal(b1-4)GlcNAc(b1-2)Man(a1-3)[GlcNAc(b1-3)Gal(b1-4)GlcNAc(b1-3)Gal(b1-4)GlcNAc(b1-2)Man(a1-6)]Man(b1-4)GlcNAc(b1-4)[Fuc(a1-6)]GlcNAc
# Method in brief: as §1
# [15] = biological target: GlcNAc(b1-3)Gal(b1-4)GlcNAc(b1-3)Gal(b1-4)GlcNAc(b1-2)[GlcNAc(b1-3)Gal(b1-4)GlcNAc(b1-3)Gal(b1-4)GlcNAc(b1-6)]Man(a1-6)[GlcNAc(b1-3)Gal(b1-4)GlcNAc(b1-3)Gal(b1-4)GlcNAc(b1-2)Man(a1-3)]Man(b1-4)GlcNAc(b1-4)[Fuc(a1-6)]GlcNAc
# Method in brief: as §1
# [16] = biological target: GlcNAc(b1-3)Gal(b1-4)GlcNAc(b1-3)Gal(b1-4)GlcNAc(b1-3)Gal(b1-4)GlcNAc(b1-2)Man(a1-3)[GlcNAc(b1-3)Gal(b1-4)GlcNAc(b1-3)Gal(b1-4)GlcNAc(b1-3)Gal(b1-4)GlcNAc(b1-2)Man(a1-6)]Man(b1-4)GlcNAc(b1-4)GlcNAc
# Method in brief: as §1
# [17] = biological target: GlcNAc(b1-3)Gal(b1-4)GlcNAc(b1-3)Gal(b1-4)GlcNAc(b1-3)Gal(b1-4)GlcNAc(b1-2)Man(a1-3)[GlcNAc(b1-3)Gal(b1-4)GlcNAc(b1-3)Gal(b1-4)GlcNAc(b1-3)Gal(b1-4)GlcNAc(b1-2)Man(a1-6)]Man(b1-4)GlcNAc(b1-4)[Fuc(a1-6)]GlcNAc
# Method in brief: as §1
# [18] = biological target: GlcNAc(b1-3)Gal(b1-4)GlcNAc(b1-3)Gal(b1-4)GlcNAc(b1-3)Gal(b1-4)GlcNAc(b1-2)[GlcNAc(b1-3)Gal(b1-4)GlcNAc(b1-3)Gal(b1-4)GlcNAc(b1-3)Gal(b1-4)GlcNAc(b1-6)]Man(a1-6)[GlcNAc(b1-3)Gal(b1-4)GlcNAc(b1-3)Gal(b1-4)GlcNAc(b1-3)Gal(b1-4)GlcNAc(b1-2)Man(a1-3)]Man(b1-4)GlcNAc(b1-4)[Fuc(a1-6)]GlcNAc
# Method in brief: as §1
# [19] = biological target: GlcNAc(b1-3)Gal(b1-4)GlcNAc(b1-3)Gal(b1-4)GlcNAc(b1-3)Gal(b1-4)GlcNAc(b1-3)Gal(b1-4)GlcNAc(b1-2)Man(a1-3)[GlcNAc(b1-3)Gal(b1-4)GlcNAc(b1-3)Gal(b1-4)GlcNAc(b1-3)Gal(b1-4)GlcNAc(b1-3)Gal(b1-4)GlcNAc(b1-2)Man(a1-6)]Man(b1-4)GlcNAc(b1-4)GlcNAc
# Method in brief: as §1
# [20] = biological target: GlcNAc(b1-3)Gal(b1-4)GlcNAc(b1-3)Gal(b1-4)GlcNAc(b1-3)Gal(b1-4)GlcNAc(b1-3)Gal(b1-4)GlcNAc(b1-2)Man(a1-3)[GlcNAc(b1-3)Gal(b1-4)GlcNAc(b1-3)Gal(b1-4)GlcNAc(b1-3)Gal(b1-4)GlcNAc(b1-3)Gal(b1-4)GlcNAc(b1-2)Man(a1-6)]Man(b1-4)GlcNAc(b1-4)[Fuc(a1-6)]GlcNAc
# Method in brief: as §1
# [21] = biological target: GlcNAc(b1-3)Gal(b1-4)GlcNAc(b1-3)Gal(b1-4)GlcNAc(b1-3)Gal(b1-4)GlcNAc(b1-3)Gal(b1-4)GlcNAc(b1-2)[GlcNAc(b1-3)Gal(b1-4)GlcNAc(b1-3)Gal(b1-4)GlcNAc(b1-3)Gal(b1-4)GlcNAc(b1-3)Gal(b1-4)GlcNAc(b1-6)]Man(a1-6)[GlcNAc(b1-3)Gal(b1-4)GlcNAc(b1-3)Gal(b1-4)GlcNAc(b1-3)Gal(b1-4)GlcNAc(b1-3)Gal(b1-4)GlcNAc(b1-2)Man(a1-3)]Man(b1-4)GlcNAc(b1-4)[Fuc(a1-6)]GlcNAc
# Method in brief: as §1
# [22] = biological target: GlcNAc(b1-3)Gal(b1-4)GlcNAc(b1-3)Gal(b1-4)GlcNAc(b1-3)GalNAc
# Method in brief: as §1
# [23] = biological target: GlcNAc(b1-3)Gal(b1-4)GlcNAc(b1-3)GalNAc
# Method in brief: as §1
# [24] = biological target: GlcNAc(b1-3)Gal(b1-4)GlcNAc(b1-3)[GlcNAc(b1-3)Gal(b1-4)GlcNAc(b1-3)]GalNAc
# Method in brief: as §1
# [25] = biological target: GlcNAc(b1-3)Gal(b1-4)GlcNAc(b1-6)[Gal(b1-3)]GalNAc
# Method in brief: as §1
# [26] = biological target: GlcNAc(b1-3)Gal(b1-4)GlcNAc(b1-6)[GlcNAc(b1-3)Gal(b1-3)]GalNAc
# Method in brief: as §1
# [27] = biological target: GlcNAc(b1-3)Gal(b1-4)GlcNAc(b1-6)[GlcNAc(b1-3)]Gal(b1-4)GlcNAc
# Method in brief: as §1
# GlcNAc(b1-3)GalNAc = biological target: GlcNAc(b1-3)GalNAc
# Method in brief: as §1
# GlcNAc(b1-3)Man = biological target: GlcNAc(b1-3)Man
# Method in brief: as §1
# [28] = biological target: GlcNAc(b1-3)[GlcNAc(b1-4)][GlcNAc(b1-6)]GlcNAc
# Method in brief: as §1
# [29] = biological target: GlcNAc(b1-3)[GlcNAc(b1-6)]Gal(b1-4)GlcNAc
# Method in brief: as §1
# [30] = biological target: GlcNAc(b1-3)[GlcNAc(b1-6)]GalNAc
# Method in brief: as §1
# [31] = biological target: GlcNAc(b1-4)Gal(b1-4)GlcNAc
# Method in brief: as §1
# GlcNAc(b1-4)GlcNAc = biological target: GlcNAc(b1-4)GlcNAc
# Method in brief: as §1
# [32] = biological target: GlcNAc(b1-4)GlcNAc(b1-4)GlcNAc
# Method in brief: as §1
binder,measurement,setting,value
B1,glycan array binding signal (z-score),[1],-0.537
same,glycan array binding signal (z-score),[2],-0.128
same,glycan array binding signal (z-score),[3],0.469
same,glycan array binding signal (z-score),[4],-0.692
same,glycan array binding signal (z-score),[5],0.138
same,glycan array binding signal (z-score),[6],-0.698
same,glycan array binding signal (z-score),GlcNAc(b1-3)Fuc,-0.267
same,glycan array binding signal (z-score),GlcNAc(b1-3)Gal,-0.171
same,glycan array binding signal (z-score),[7],-0.695
same,glycan array binding signal (z-score),GlcNAc(b1-3)Gal(b1-4)Glc,-0.519
same,glycan array binding signal (z-score),[8],-0.493
same,glycan array binding signal (z-score),[9],0.123
same,glycan array binding signal (z-score),[10],-0.094
same,glycan array binding signal (z-score),[11],0.312
same,glycan array binding signal (z-score),[12],-0.426
same,glycan array binding signal (z-score),[13],0.464
same,glycan array binding signal (z-score),[14],0.39
same,glycan array binding signal (z-score),[15],0.67
same,glycan array binding signal (z-score),[16],0.091
same,glycan array binding signal (z-score),[17],-0.45
same,glycan array binding signal (z-score),[18],-0.655
same,glycan array binding signal (z-score),[19],-0.393
same,glycan array binding signal (z-score),[20],0.158
same,glycan array binding signal (z-score),[21],-0.086
same,glycan array binding signal (z-score),[22],-0.536
same,glycan array binding signal (z-score),[23],-0.637
same,glycan array binding signal (z-score),[24],1.33
same,glycan array binding signal (z-score),[25],-0.16
same,glycan array binding signal (z-score),[26],-0.409
same,glycan array binding signal (z-score),[27],-0.641
same,glycan array binding signal (z-score),GlcNAc(b1-3)GalNAc,-0.211
same,glycan array binding signal (z-score),GlcNAc(b1-3)Man,-0.523
same,glycan array binding signal (z-score),[28],-0.856
same,glycan array binding signal (z-score),[29],0.207
same,glycan array binding signal (z-score),[30],-0.376
same,glycan array binding signal (z-score),[31],-0.044
same,glycan array binding signal (z-score),GlcNAc(b1-4)GlcNAc,0.104
same,glycan array binding signal (z-score),[32],-0.425
